{"source": "patent US20240317727A1", "about": "(Duke University, priority 2018, published 2024)", "tested_on": "NCI-H322M", "assay": "cells", "conditions": "Non-Small Cell Lung Cancer, two days", "experimental": "HSF1 binding compounds were tested for its activity in suppressing the growth of a broad range of cancer types. For example, Compound 0017 was incubated for two days with a diverse series of cancer cell lines in the NCI60 collection and cell growth and viability were measured, and the results are shown in Table 4.", "data": [{"smiles": "O=C(Nc1ccc(F)cc1)Nc1ccc(Cl)c([N+](=O)[O-])c1", "note": "[Compound 0017, 1-(4-chloro-3-nitrophenyl)-3-(4-fluorophenyl)urea]", "values": [{"measurement": "GI50", "setting": "Homo sapiens, 48 h, read-out: log10 [GI50 (M)] (converted)", "result": "3.31e-06", "unit": "M"}, {"measurement": "CC50", "setting": "Homo sapiens, 48 h, read-out: log10 [LC50 (M)] (converted)", "result": "5.25e-05", "unit": "M"}, {"measurement": "log10 [TGI (M)]", "result": "−4.92", "unit": "log10 M"}]}]}
